# According to the supplement of paper PMC3334620:
# The full ranking holds about 33,000 sequences; the median of “E-score (-0.5 to 0.5)” is about -0.035, and the highest 2% start at about 0.35. The list shows a part of the results.
# Biological target: T1, Pdr3 (UniProt P33200)
# T1 sequence: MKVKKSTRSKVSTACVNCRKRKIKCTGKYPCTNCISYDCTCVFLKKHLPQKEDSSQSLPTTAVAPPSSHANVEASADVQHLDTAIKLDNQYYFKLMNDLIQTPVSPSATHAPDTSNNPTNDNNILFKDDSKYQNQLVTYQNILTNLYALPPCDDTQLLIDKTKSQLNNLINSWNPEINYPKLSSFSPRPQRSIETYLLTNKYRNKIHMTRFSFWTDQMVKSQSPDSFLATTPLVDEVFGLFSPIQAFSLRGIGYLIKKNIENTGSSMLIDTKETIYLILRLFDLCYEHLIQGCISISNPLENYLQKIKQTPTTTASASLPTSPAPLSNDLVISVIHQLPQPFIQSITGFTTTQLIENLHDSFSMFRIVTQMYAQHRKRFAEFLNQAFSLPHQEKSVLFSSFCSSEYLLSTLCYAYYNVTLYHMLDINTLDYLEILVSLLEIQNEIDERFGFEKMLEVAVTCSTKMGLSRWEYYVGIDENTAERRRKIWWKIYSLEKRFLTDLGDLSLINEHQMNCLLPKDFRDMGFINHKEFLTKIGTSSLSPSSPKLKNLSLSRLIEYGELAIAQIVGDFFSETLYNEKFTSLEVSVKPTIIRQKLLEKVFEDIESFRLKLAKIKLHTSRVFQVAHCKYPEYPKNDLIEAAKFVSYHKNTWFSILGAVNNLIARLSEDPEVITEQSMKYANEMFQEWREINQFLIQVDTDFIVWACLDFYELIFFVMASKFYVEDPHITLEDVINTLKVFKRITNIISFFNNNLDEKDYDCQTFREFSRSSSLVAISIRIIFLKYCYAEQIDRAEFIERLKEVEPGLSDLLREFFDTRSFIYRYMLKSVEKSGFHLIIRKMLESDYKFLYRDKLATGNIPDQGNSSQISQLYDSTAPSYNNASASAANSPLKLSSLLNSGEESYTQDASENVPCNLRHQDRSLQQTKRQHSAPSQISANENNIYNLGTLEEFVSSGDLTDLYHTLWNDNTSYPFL
# Assay: PBM E-score (8-mer binding enrichment) (E-score (-0.5 to 0.5)); higher = stronger / more preferred TF binding; most listed sequences are background and not binding sites
# Conditions: protein concentration: 200 nM; construct: GST-full length
# Outline: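 Yeast transcription factors, full-length or as DNA-binding domains, were expressed with a GST tag using PURExpress in vitro transcription/translation. At about 100-200 nM they were applied to universal all-10-mer Agilent arrays, double-stranded by primer extension on fresh or once-stripped slides. Fluorescent anti-GST detected bound protein, and masliner normalised the scans. E-scores for ungapped eight-base words, pooled with reverse complements, came from the Universal PBM Analysis Suite.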
row,Sequence,PBM E-score
1,AACGTGAC,-0.0631
2,CGGTAGAA,-0.215
3,ATTGACGG,0.16
4,CCGTTAAG,0.121
5,GATCAGCC,-0.0112
6,TGCAATAA,-0.00943
7,AATCAGTG,-0.104
8,AATGATGC,0.177
9,AGCAAAAC,-0.0852
10,AGTTTGGG,0.0572
11,AGCGGATC,0.374
12,AAGTGGTC,0.00637
13,CTGCCATC,-0.0435
14,GAGGTACC,0.00932
15,CGCATCTA,0.225
16,CATGTCCC,0.0958
17,AAATTATG,-0.0382
18,ACCCGCTA,0.0768
19,AGAAGTAA,-0.134
20,ATTCTGTA,-0.103
21,CGACACCC,-0.0348
22,CTTTTGGC,-0.0694
23,AATGCAAC,-0.217
24,ATACTTAA,-0.0649
25,TAATTCGA,-0.234

row,Sequence,PBM E-score
1,CTGACATC,0.0447
2,ATTTCAGC,-0.05
3,CCGCAGTA,0.0477
4,ACATTAGT,-0.0557
5,GTAAGCAA,-0.0781
6,TACGAGGA,0.00203
7,AATACTTA,-0.0377
8,ACCTGGGA,-0.0488
9,CAGTTTAA,-0.226
10,CTCCTCAG,-0.224
11,GTCATCGA,-0.174
12,TCCGTCGA,0.39
13,TCGAAACA,0.0608
14,CTTCCAGC,-0.209
15,CTATAAGA,-0.0975
16,GCCCTTAC,-0.0109
17,ACCACCAG,-0.117
18,CAGGGGCC,-0.0384
19,ACTCGAGA,0.136
20,GCGGGCAC,0.216
21,AGAGGTCG,0.0531
22,AGCTTTTC,-0.0147
23,CTTGTAAC,0.0659
24,AGGTTACG,-0.084
25,CTCGAGTA,0.0611

row,Sequence,PBM E-score
1,TCCTGCGA,0.0321
2,ATGCTTTA,-0.199
3,GGCGCGCA,0.218
4,CGGAGGTA,0.214
5,CGCTGTGA,-0.0994
6,AGCCGGTA,0.199
7,CCCCCCAG,-0.372
8,GGCTTGAC,-0.0993
9,ACAATGAA,-0.0708
10,CGCGACGC,0.0669
11,TCAAGCGA,-0.0814
12,CCGGCGCA,0.321
13,CAAGACAC,0.0119
14,CGTACTCA,0.0823
15,GGGACAGA,0.00619
16,GATTACAA,-0.0153
17,ATTGGTCG,0.032
18,AGTGCAAT,-0.197
19,CCTCGCGC,-0.0155
20,ATACCTGA,0.0144
21,CTCATAAA,-0.00626
22,CCTAGACA,-0.339
23,CGATTTGC,0.0904
24,ATCTAGAG,-0.177
25,ATCTATGA,-0.106

row,Sequence,PBM E-score
1,AGGCCCCG,0.019
2,CAGGTGAC,-0.246
3,CGGTCCTC,0.0158
4,CGAAACTA,0.107
5,GGTCATGA,0.0794
6,ATGTGTAG,0.0654
7,CTCGTGTA,-0.109
8,GCGATCGC,0.144
9,GGAGGTAA,-0.0212
10,AGAGCTCA,-0.00784
11,ACCTCATA,-0.0284
12,AGCAAGAC,-0.134
13,CGGAGGAC,0.283
14,AACGGGTA,0.143
15,AAAAGTAG,-0.0943
16,CACCGACA,0.0198
17,AGAGTGAG,-0.163
18,ACTTGTCA,-0.0157
19,AGACGCGA,-0.0931
20,CTTGCGTA,-0.236
21,ACATCCCG,0.415
22,ACACGCCG,0.289
23,GTGCCCGA,-0.0135
24,AAGTACTG,-0.201
25,AAACACAA,-0.138

row,Sequence,PBM E-score
1,ACAGCATC,-0.0602
2,AATGAGGA,-0.177
3,CTTGCAAG,0.112
4,ATAGCGTA,-0.0208
5,ATATGTTA,-0.207
6,TACCCTGA,-0.251
7,CTGACGAC,-0.0802
8,ATGGGAAG,-0.0606
9,AACTTGTG,0.067
10,AGAATCTA,-0.115
11,CGTCCAAA,0.194
12,AAACGATA,-0.116
13,ATTTTAGG,-0.125
14,ATTAATTG,0.00256
15,ACGTTCCC,0.0163
16,CCAATAGC,-0.181
17,CTGGACAG,0.053
18,CACACCTC,0.0191
19,TCAAAGGA,-0.133
20,CGCAATGC,-0.0405
21,ACCACAGT,0.085
22,ATGTTATG,-0.00203
23,GAATCTAC,-0.0589
24,CTTAGTTC,0.064
25,ACCGTTCT,-0.0192

row,Sequence,PBM E-score
1,AAGACGGC,0.142
2,GAGTGCAA,0.0493
3,ATTGTAAC,-0.0193
4,CCAGGACG,-0.224
5,GCAGGTCC,0.0273
6,CCACGAAC,0.0802
7,ACATGACG,-0.0466
8,GTAGATAC,-0.175
9,CACCACTA,0.0244
10,CAGGACCC,-0.136
11,CGCAGTGA,0.0203
12,GACACGCA,-0.0604
13,ACTAAAAG,0.00579
14,GCTAGATA,0.0703
15,GCAGAAAC,-0.0854
16,AGATCGCG,0.16
17,AAGTTACG,-0.0907
18,CGAGAACC,0.0104
19,CCCCTAGG,-0.177
20,GAGAGCAC,0.0471
21,GACAGTAC,0.0759
22,TATAGTCA,-0.158
23,GTATGGTA,-0.0789
24,CCAGACTC,-0.205
25,AAGCTGAG,-0.044

row,Sequence,PBM E-score
1,CTAAGAGA,-0.316
2,CCCGTCGA,0.215
3,GATAAAAA,-0.0653
4,AAAGTGTC,0.0496
5,ACTATGGA,-0.195
6,AGACTTTG,-0.167
7,AGGGGGGG,-0.474
8,ACTGCTAG,-0.178
9,AATTTTGA,0.043
10,GATCAGTA,0.107
11,CCAAGGAA,-0.0128
12,CGAATGAA,0.0526
13,CTTTTGCC,0.108
14,GGACAGCA,0.166
15,GAGACCCC,-0.0304
16,ATTTCCTG,0.0852
17,ATATACTG,0.169
18,ATTTTTTC,0.0225
19,AGGCAAGC,-0.125
20,CCAAGTAG,-0.276
21,CCTGGTCG,-0.0152
22,CGAGATTC,0.173
